From PubChem BioAssay AID686971 (National Center for Advancing Translational Sciences (NCATS), 2013)
Among all 360,000 compounds or so, about 7,500 (2.1%) were called active. The inconclusive results got no clear call from the source; some entries with a clear call stand among them for comparison. Calls follow the shape of the dose curve; as a rule, active = well fitted cell-killing curve with a large enough effect; inconclusive = small, poorly fitted or top-dose-only effect, or effect the other way, or another doubt; inactive = no such curve, though single readings can be large or run the other way. No potency is given beside an inconclusive call; the fits are too rough.
Potency is read from the fitted curve at half-maximal effect; tags tell the direction and shape of the fitted curve.

Assay: qHTS for induction of synthetic lethality in tumor cells producing 2HG: qHTS for the HT-1080-IDH1KD cell line;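 as to activity, negative = toxicity: 0% = DMSO wells and -100% = cell-free medium wells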
Conditions: HT-1080 IDH1 knockdown viability, ATP luminescence, 48 h; activity, negative = toxicity: at 46.1 µM (top of the series) unless noted
Outline: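 Knockdown cells (IDH1KD HT-1080) received compounds 2 h after plating at 750 cells/well and were kept 48 h at 37 °C in 5% FBS RPMI. A CellTiter-Glo luminescence read gave % activity for curve fitting.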
With N#C/C(=C\c1ccc(OCc2ccc(C(=O)O)cc2)cc1)C(=O)N1CCOCC1 the Potency was inconclusive [cytotoxic, single point]. In the case of CC(=O)N1CCCc2cc(S(=O)(=O)NCCC3=CCCCC3)ccc21, the activity, negative = toxicity was inconclusive: -34.3% [cytotoxic]. With COc1ccc(S(=O)(=O)N(C(=O)c2ccco2)c2cc3sc(=O)oc3c3ccccc23)cc1 the Potency was inconclusive [cytotoxic, single point]. With O=C(OCCC12CC3CC(CC(C3)C1)C2)c1ccc(NCc2cc(O)ccc2O)cc1 the Potency was active: 7.31 µM. In the case of CN(C)c1nc2ccccc2c(N)c1-c1ccccc1, the Potency was inconclusive [cytotoxic, single point]. With CC(=O)c1cccc(S(=O)(=O)N2CCCC(c3nc4c(nnn4Cc4ccc(C)cc4)c(=O)[nH]3)C2)c1 (centres undefined) the Potency was inconclusive [cytotoxic, partial curve]. For Cc1ccc2c(c1)N(C(=O)CCC(=O)O)CCO2, the Potency was “inactive”. With O=C(Nc1cccc(-c2cccc(F)c2)c1)C1CCN(Cc2ccco2)CC1 the Potency was inconclusive [cytotoxic, single point]. For Cn1c(=O)n(Cc2ccccc2)c(=O)c2c1nc(NCC1CCCO1)n2Cc1ccccc1 (centres undefined), the Potency was inconclusive [cytotoxic, partial curve]. For O=c1cc(N2CCCCC2)c(-c2ccccc2)nn1Cc1ccc(Cl)cc1Cl, the Potency was inconclusive [cytotoxic, single point]. For COc1ccc2nc(NNC(=O)COc3ccccc3)sc2c1, the activity, negative = toxicity was inconclusive: -21.1% [cytotoxic]. With CC(C)(C)c1ccc(Cn2nnc3c(=O)[nH]c(C4CCCN(C(=O)Cc5cccs5)C4)nc32)cc1 (centres undefined) the Potency was inconclusive [cytotoxic, single point]. In the case of CC(=O)C1=C(C)OC2(O)c3ccccc3C(=O)C12O (centres undefined), the Potency was “inactive”. In the case of CC(C)CCNC(=O)C(CC(C)C)N(Cc1ccc2c(c1)OCO2)C(=O)c1snc(C(N)=O)c1N (centres undefined), the Potency was “inactive”. In the case of O=C(COc1ccccc1[N+](=O)[O-])Nc1ccc(N2CCN(C(=O)c3cccs3)CC2)cc1, the Potency was inconclusive [cytotoxic, single point]. For O=C(COc1cccc2ccccc12)N1c2ccccc2CCc2ccccc21, the Potency was inconclusive [cytotoxic, single point]. For Cc1ccc(N2CC(C(=O)Nc3ccccc3C(=O)NC3CCCCC3)CC2=O)cc1 (centres undefined), the Potency was “inactive”. In the case of COc1ccc(CCNC(=O)c2ccc(NS(=O)(=O)c3ccc4[nH]c(=O)[nH]c4c3)cc2)cc1OC, the Potency was inconclusive [rising, single point]. For COc1ccc(NC(=O)N2CCN(C(=O)C3CCCO3)CC2)cc1 (centres undefined), the Potency was “inactive”. For Cc1ccc(NC(=O)CN2C(=O)NC(C)(c3ccc(Cl)cc3)C2=O)c(Br)c1 (centres undefined), the Potency was inconclusive [cytotoxic, single point]. With Cc1ccc(OCCC(=O)N2CCN(c3ccc(O)cc3)CC2)cc1 the Potency was active: 7.31 µM. With COc1ccc(C(=O)N=c2sc3ccccc3n2C)cc1OC the Potency was “inactive”. In the case of Cc1cc(NC2=CC(=O)C(=O)c3ccccc32)no1, the Potency was inconclusive [cytotoxic, single point]. In the case of Cn1c(=O)c2cc(NC(=O)Nc3cccnc3)ccc2n1-c1ccc(C(C)(C)C)cc1, the Potency was inconclusive [cytotoxic, partial curve]. For Nc1c(N(Cc2ccccc2)C(=O)COc2ccc([N+](=O)[O-])cc2)c(=O)[nH]c(=O)n1Cc1ccccc1, the Potency was inconclusive [cytotoxic, partial curve]. With COCCCNC(CC(=O)Nc1ccc(OC)cc1OC)C(=O)O (centres undefined) the Potency was inconclusive [cytotoxic, single point]. With Cc1cc(C)c2nc(NC(=O)C3CC(=O)N(Cc4ccco4)C3)sc2c1 (centres undefined) the Potency was “inactive”. For CCC1CCCCN1c1nc(-c2ccncc2)nc2ccccc12 (centres undefined), the Potency was inconclusive [cytotoxic, single point]. With COc1ccc(C(NC(=O)c2cccnc2)c2cc(Cl)c3cccnc3c2O)cc1OC (centres undefined) the Potency was active: 11.6 µM. For CC(C)C[C@H](NC(=O)/C=C/[C@H]1O[C@@H](n2ccc(=O)[nH]c2=O)[C@H](O)[C@@H]1O)C(=O)O, the Potency was inconclusive [rising, partial curve, poor fit]. For CC(Sc1nnc(Cc2ccccc2)n1C)C(=O)NC1CC1 (centres undefined), the Potency was “inactive”. With CC(C)(O)C#Cc1ccc(CN2CCN(Cc3ccsc3)C(CCO)C2)s1 (centres undefined) the Potency was “inactive”. For O=[N+]([O-])c1ccc(/C=N/NC(=S)Nc2ccccc2)o1, the Potency was “inactive”. With O=C(CCS(=O)(=O)c1ccccc1)Nc1nnc(C(F)(F)F)s1 the Potency was active: 18.4 µM. In the case of CC1=NN(c2nc(-c3ccccc3)cs2)C(=O)C1N=Nc1ccccc1 (centres undefined), the Potency was “inactive”. In the case of O=C(O)CCCC(=O)N1CCN(c2nc(-c3ccccc3Cl)c3cc(Br)ccc3n2)CC1, the Potency was inconclusive [cytotoxic, single point]. For Cc1ccc(S(=O)(=O)N2CCN(C(=O)CCC(=O)NCCc3ccc(F)cc3)CC2)cc1, the activity, negative = toxicity was inconclusive: 30.5%. For CC(=O)Nc1ccc(NC(=O)c2cccc3ccccc23)cc1, the Potency was inconclusive [cytotoxic, single point]. With COc1ccc(N/C=C2\CCc3ccccc3C2=O)cc1 the Potency was inconclusive [cytotoxic, single point]. For O=C(NCc1ccc(OC(F)(F)F)cc1)C12CN(Cc3ccccc3)CC1C(c1cccc([N+](=O)[O-])c1)=NO2 (centres undefined), the Potency was “inactive”. For COc1ccc(C(=O)C[n+]2ccc3c(c2)nc(-c2ccc(OC)cc2OC)n3C)cc1, the Potency was inconclusive [cytotoxic, partial curve]. With COC(=O)c1cc(NC(=O)c2c(Cl)nc3sccn23)cc(C(=O)OC)c1 the activity, negative = toxicity was inconclusive: -0.138% [cytotoxic]. For CC(=O)c1sc(NC(=O)CCS(=O)(=O)c2ccc(F)cc2)nc1C, the Potency was inconclusive [cytotoxic, partial curve]. For CCOC(=O)Cc1ccc(NC(=O)c2ccc(C(C)(C)C)cc2)cc1, the Potency was inconclusive [cytotoxic, single point].
